Experimental data as given in the RNAGym collection of RNA variant scans (doi:10.1093/nar/gkz1192).
The source gives no read counts; variants with many changes may rest on few reads.

B1: CPEB3 Ribozyme (parent)
chain: UAACAGGGGGCCACAGCAGAAGCGUUCACGUCGCAGCCCCUGUCAGAUUCUGGUGAAUCUGCGAAUUCUGCUGUAUAUCUC

Variants of: B1
Experiment: self-cleavage, relative activity (ratio to wild type); higher = more cleavage; in vitro, sequencing
Procedure, shortened: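 Relative activity compares each variant's cleaved/total read fraction with that of the unmutated ribozyme. To get these fractions, barcoded CPEB3 ribozyme libraries from rounds of error-prone PCR were transcribed with T7 RNA polymerase for 5 hours at 37°C and then given 15 min of DNase I treatment before EDTA was added. The RNAs were reverse transcribed with template switching and sequenced on Illumina, and DNA sequencing linked barcodes to variants. A minimum of 5 reads applied, and three batches were averaged.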

Row | Variant | self-cleavage
1 | U41C A56U U66C | 0.47
2 | C39U U58C U72C | 0.69
3 | U41A A57U U72A | 0.44
4 | C40U U43A A57G U58C U69C | 0.5
5 | U41A U48A U49A A56U A65G G70A | 0.09
6 | U41A U67C U74G | 0.33
7 | U41A U67C U72C | 0.15
8 | C40A U43C U80C | 0.12
9 | C40A U41A A47U U72C | 0.04
10 | U41A G55C A57G A64G | 0.06
11 | U41A U67C U78C | 0.17
12 | A35G U67C U69C | 0.46
13 | U41C U49A U66C U67C G70A U80C | 0.14
14 | U41C U48C U74G | 0.84
15 | U41C A45G U76C A77U | 1.08
16 | A35U A47G U51A | 0.52
17 | A35U C37A U69C U78A | 0.08
18 | A35U A45G U60A | 0.14
19 | U41A G46C U54C A75G | 0.06
20 | U41C A57G U58C U60C | 0.21
21 | C37U A47C G55A A56G | 0.09

Row | Variant | self-cleavage
22 | U41C C50A U67C U69C | 0.19
23 | G36A C40A G42U | 0.07
24 | A35U U51C C68U U72G | 0.55
25 | A35G U67A U78G | 1.27
26 | U41A U54C U67A | 0.47
27 | U41A U49C U54C A64G U80C | 0.11
28 | C40U U51A U54A A56G U60C | 0.12
29 | A35U U49C U76C | 0.26
30 | C37A U41A A65G | 0.32
31 | U41A A45U A64G | 0.44
32 | A35U A64U U66C U80A | 0.1
33 | C37U C39U U51A C59A U80C | 0.11
34 | U41A A57G A65U | 0.11
35 | U41A C50A A64U | 0.12
36 | G36U U43C U60C U69A | 0.25
37 | U41A A45U U60C G61A U76C | 0.17
38 | U41C G42A U43A U58C U60C | 0.09
39 | A35U U43C A64U | 0.33
40 | U41C U43G U69A C71U | 0.27
41 | C40G U41A U80A | 0.42
42 | U41C G55A A57G | 0.67

Row | Variant | self-cleavage
43 | C38A C50A U69A | 0.14
44 | U41A U43C A57G | 0.1
45 | A35U A45G A56C A57U U80C | 0.12
46 | A35U C37U U43C U54C | 0.08
47 | U41A G63A A64U | 0.13
48 | A35U U41C U43A A45G U72C U74C | 0.27
49 | A35U U43C A45G U51A | 0.23
50 | G36A U41C U48A A77G U78C | 0.05
51 | U41C U43C U48C | 0.49
52 | C39A U51A A56G | 0.17
53 | U41C G63U U72C C81U | 1.25
54 | C40G A47U U51G U58G C71U | 0.05
55 | A35G U74A U78A | 1.3
56 | C38U U51C A75G U78C | 0.24
57 | C40U U43G U54C | 0.48
58 | C38U U67C U76C | 0.27
59 | A35U A45U U66A | 0.11
60 | A35U C38A U76C A77U | 0.06
61 | U41C U43A G61U U69C | 0.16
62 | C40A C71U U72C | 0.08
63 | U41A U48A U58C | 0.17

Row | Variant | self-cleavage
64 | A35U C40A U78C | 0.15
65 | A35U A45G U49A U67A U78C | 0.09
66 | A35U U41C A45U U58C | 0.13
67 | U41C C68A U78A | 0.23
68 | C37G A57G A64G G70C | 0.12
69 | A35U U43A U69C U74C | 0.24
70 | C40A G42U A45G | 0.09
71 | U41A A64U C68U | 0.33
72 | A35U U41G U49C U60G A65G U76C U80C | 0.12
73 | G36A U49C A64G U72A | 0.5
74 | C38A U41A U60C U69C | 0.4
75 | C38U C40U U60C | 0.1
76 | U41A A56G A75U | 0.18
77 | U41A U43C A45U U80C | 0.09
78 | A35U U41C U51C | 0.39
79 | U41A A65G G73A | 0.1
80 | C37U C50G U67A | 0.12
81 | C38U U48A U51A U80C | 0.18
82 | A35U C38G U48C U49C U51A U58C G73C | 0.05
83 | A35U U43A C44U A47U | 0.02
84 | A35U U43A A57G | 0.35
